Measurements published in the supplement of paper PMC11417369.
The other results are listed elsewhere or left out.

tested on: PfSIP2 AP2 domain 1 (GST-tagged); experiment: gcPBM binding intensity (ln(normalized median fluorescence intensity)); higher = stronger DNA binding
Procedure, shortened: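 In this array assay, P. falciparum DNA-binding domains with a GST tag, expressed in E. coli, were applied for 1 h to primer-extended double-stranded 36-bp intergenic genomic probes and negative controls on an Agilent 4 × 180k array. Bound protein was visualised with Alexa488 anti-GST antibody at 488 nm. Binding intensity is the highest Masliner-normalised natural-log median intensity across replicate spots of either probe orientation.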

Row | Sequence | gcPBM binding intensity (ln)
1 | ATATACACCTGAGAGGTGCATATATATAAAATTTAC | 11.2
2 | CCGTACAATTTTGTCACACATAAAATACTTATGTAT [CACACA_site4871] | 6.95
3 | AATGTAGTTTATCGATGTACACAAAATAAAGAGAAG [XGTACX_site6956] | 7.99
4 | GTAATTTTTTTCTATACACACATATATATAATATAT [CACACA_site2655] | 7.44
5 | AATATAAATATAAATATAAATAAATAAATAAATAAA [CACACA_negctrl_site291] | 7.25
6 | AAAGTAAAAGGGTTTGGTACACATATAATATATTAG [XGTACX_site6036] | 6.95
7 | CATTTATATAAAGAATGTACACACAGAAATGCACAC [XGTACX_site4718] | 8.37
8 | ATAACTTTTATTTGTACACACATACATCTATATTAT [CACACA_site6595] | 7.49
9 | AGTAAAAGAAAGCACACACACATGTATTTATGTATG [CACACA_site5998] | 6.85
10 | AAAAAAAAAAAAAAATGTACATATATATATATATTA [XGTACX_site7330] | 7.32
11 | ATAAAATAAGACAAAAAAAAAATATATATATATATA [TGCATGCA_negctrl_site314] | 9.19
12 | CCTTGTCTTTTTTTTTTTTTTTTTTCTTCTTATTTT [GTGCAC_negctrl_site523] | 6.9
13 | AGTAGATATAATATATGTACATATATATATATATAT [XGTACX_site7186] | 9.72
14 | TGCATATACTCAAGCACACATATATATATATATATA [CACACA_site4733] | 9.6
15 | ATATTAAACAAACACACACACATATATATATATATA [CACACA_site3383] | 9.67
16 | ATATATTGAAAATATAGTACATAATAAATGTTCTTT [XGTACX_site8474] | 6.83
17 | TTTTTTTTTTTTTTTTTTTTTTTTTTTTTTTGGGGG [CACACA_negctrl_site1570] | 7.49
18 | AATAAATTTAAACACACACACACATATATATATATA [CACACA_site4621] | 9.57
19 | TATATACATAAACACACACACACATATATATATATA [CACACA_site8707] | 9.72
20 | CAGATAGACTTATATGCATGCATTCACCTGCCAACA [TGCATGCA_site158] | 6.91
21 | ATATTACATAATATATGTACACACGCAAATACTTAT [XGTACX_site671] | 7.11
22 | TAAGCATAAATGTATACATGCGATGCATACACATAT [TGCATGCA_site749] | 6.77
23 | ATGAAATTATATTGGGGTACGTCAAAAAAGGAGATA [XGTACX_site7451] | 7.5
24 | GGGTATATATTATTATGTACACATGTATAAAATAAG [XGTACX_site2633] | 7.29
